Assay results reported in US9358096B2, “Methods of treatment with drug eluting stents with prolonged local elution profiles with high local concentrations and low systemic concentrations” (Abbott Laboratories, priority 2007, dated 2016).
Where “and” joins values, the source holds several entries; their conditions need not be identical. Identical values can stand only once.

Legend:
[1] = everolimus whole blood concentration after stent implantation in swine; settings: for Cmax / Tmax: pig; for Cmax: blood Cmax; for Tmax: blood Tmax
[2] = systemic blood concentration of everolimus in stented patients; type: in vivo; settings: STENT A
From the text: A second salient feature of the slow drug release of the STENT A embodiment is that the potential for systemic everolimus overexposure is minimized.

[3] = tested on: neointimal hyperplasia; settings: cited from earlier work
[4] = cited from earlier work
[5] = tested on: restenosis; settings: formulated onto coronary stents at 150 μg everolimus/cm^2 stent area; cited from earlier work
[6] = extravascular tissue drug concentration after stent implantation; type: in vivo; settings: swine, 7.0×100 mm stent
[7] = everolimus arterial tissue concentration in and next to the stented vessel; type: in vivo; settings: swine, 7.0×100 mm stent
[8] = whole blood, 1070 ug, 8×28 mm stent, 1070 μg everolimus (first aspect, matches group 1)
[9] = whole blood, 1070 ug, 8×28 mm stent, 1070 μg everolimus (second aspect, matches group 2)
[10] = whole blood, 1070 ug, 10×28 mm stent, 1070 μg everolimus
[11] = whole blood, 3209 ug, 8×28 mm stent, 3209 μg everolimus
[12] = swine, whole blood, 1070 μg, drug concentration in whole blood, swine, 8.0×28 mm stent, group 2, 1070 μg Lot #2
[13] = swine, whole blood, 1070 μg, drug concentration in whole blood, 10.0×28 mm stent
[14] = swine, whole blood, 3209 μg, drug concentration in whole blood, swine, 8.0×28 mm stent, group 3, 3209 μg
[15] = swine, whole blood, drug concentration in whole blood, 7.0×100 mm stent
[16] = kidney, read-out: Extravascular Drug Concentration, Kidney
[17] = liver, read-out: Extravascular Drug Concentration, Liver
[18] = lung, read-out: Extravascular Drug Concentration, Lung
[19] = muscle (gastrocnemius), read-out: Extravascular Drug Concentration, Muscle
[20] = spleen, read-out: Extravascular Drug Concentration, Spleen
[21] = read-out: Mean Arterial Tissue Concentration, A non-stented region proximal to stented region
[22] = read-out: Mean Arterial Tissue Concentration, E non-stented region distal to stented region

**Q.** For `CO[C@H]1C[C@@H]2CC[C@@H](C)[C@@](O)(O2)C(=O)C(=O)N2CCCC[C@H]2C(=O)O[C@H]([C@H](C)C[C@@H]2CC[C@@H](OCCO)[C@H](OC)C2)CC(=O)[C@H](C)/C=C(\C)[C@@H](O)[C@@H](OC)C(=O)[C@H](C)C[C@H](C)/C=C/C=C/C=C/1C` [everolimus, 40-O-(2-hydroxyethyl)-rapamycin], which “blood Tmax” value ([1]; 7×100 mm stent, 3777 μg everolimus) is on record?
**A.** Its value is 1.01 h.

**Q.** What about the Cmax [1, 8] of the same compound?
**A.** Its Cmax is no more than 2.29 ng/mL.

**Q.** And the Cmax [1, 9]?
**A.** The Cmax was no more than 2.7 ng/mL.

**Q.** And the Cmax [1, 10]?
**A.** The Cmax was no more than 0.72 ng/mL.

**Q.** And the Tmax [1, 8]?
**A.** Its Tmax is 24 h.

**Q.** And the Tmax [1, 9]?
**A.** Its Tmax is 72 h.

**Q.** And the Tmax [1, 10]?
**A.** The Tmax was 168 h.

**Q.** What about the Cmax [1, 11] of the same compound?
**A.** Its Cmax is no more than 3.35 ng/mL.

**Q.** What about the Tmax [1, 11] of the same compound?
**A.** The Tmax was 72 h.

**Q.** What about the Cmax ([1]; whole blood, 3777 ug, 7×100 mm stent, 3777 μg everolimus) of the same compound?
**A.** The Cmax was no more than 9.6 ng/mL.

**Q.** And the concentration at 3 days [1, 12]?
**A.** Its concentration at 3 days is 2.7 ng/mL.

**Q.** What about the concentration at 7 days [1, 12] of the same compound?
**A.** Its concentration at 7 days is 1.57 ng/mL.

**Q.** What about the concentration at 28 days [1, 12] of the same compound?
**A.** The concentration at 28 days was less than 0.1 ng/mL.

**Q.** And the concentration at 56 days [1, 12]?
**A.** Its concentration at 56 days is less than 0.1 ng/mL.

**Q.** And the concentration at 90 days [1, 12]?
**A.** Its concentration at 90 days is less than 0.1 ng/mL.

**Q.** And the concentration at 7 days [1, 13]?
**A.** Its concentration at 7 days is 0.72 ng/mL.

**Q.** And the concentration at 14 days [1, 13]?
**A.** The concentration at 14 days was 0.23 ng/mL.

**Q.** And the concentration at 28 days [1, 13]?
**A.** Its concentration at 28 days is 0.12 ng/mL.

**Q.** And the concentration at 90 days [1, 13]?
**A.** The concentration at 90 days was less than 0.1 ng/mL.

**Q.** And the concentration at 3 days [1, 14]?
**A.** The concentration at 3 days was 3.35 ng/mL.

**Q.** And the concentration at 7 days [1, 14]?
**A.** Its concentration at 7 days is 1.45 ng/mL.

**Q.** What about the concentration at 14 days [1, 14] of the same compound?
**A.** Its concentration at 14 days is 1.03 ng/mL.

**Q.** And the concentration at 28 days [1, 14]?
**A.** The concentration at 28 days was 0.29 ng/mL.

**Q.** And the concentration at 56 days [1, 14]?
**A.** The concentration at 56 days was less than 0.1 ng/mL.

**Q.** What about the concentration at 90 days [1, 14] of the same compound?
**A.** Its concentration at 90 days is less than 0.1 ng/mL.

**Q.** And the concentration at 0.04 days ([1]; swine, whole blood, drug concentration in whole blood, 7.0×100 mm stent, 0.04 days)?
**A.** The concentration at 0.04 days was 9.56 ng/mL.

**Q.** What about the concentration at 0.12 days ([1]; swine, whole blood, drug concentration in whole blood, 7.0×100 mm stent, 0.12 days) of the same compound?
**A.** Its concentration at 0.12 days is 6.25 ng/mL.

**Q.** And the concentration at 0.25 days ([1]; swine, whole blood, drug concentration in whole blood, 7.0×100 mm stent, 0.25 days)?
**A.** The concentration at 0.25 days was 4.97 ng/mL.

**Q.** What about the concentration at 1 day ([1]; swine, whole blood, drug concentration in whole blood, 7.0×100 mm stent, 1 day) of the same compound?
**A.** Its concentration at 1 day is 4.94 ng/mL.

**Q.** What about the concentration at 2 days ([1]; swine, whole blood, drug concentration in whole blood, 7.0×100 mm stent, 2 days) of the same compound?
**A.** The concentration at 2 days was 4.13 ng/mL.

**Q.** And the concentration at 3 days [1, 15]?
**A.** The concentration at 3 days was 3.52 ng/mL.

**Q.** And the concentration at 7 days [1, 15]?
**A.** The concentration at 7 days was 1.64 ng/mL.

**Q.** What about the concentration at 14 days [1, 15] of the same compound?
**A.** Its concentration at 14 days is 1.14 ng/mL.

**Q.** What about the concentration at 28 days [1, 15] of the same compound?
**A.** Its concentration at 28 days is 0.27 ng/mL.

**Q.** And the concentration at 90 days [1, 15]?
**A.** Its concentration at 90 days is less than 0.1 ng/mL.

**Q.** What about the concentration at 0 days ([1]; swine, whole blood, drug concentration in whole blood, 7.0×100 mm stent, at implantation) of the same compound?
**A.** Its concentration at 0 days is less than 0.1 ng/mL.

**Q.** What about the “maximum systemic blood concentration of everolimus in stented patients” value ([2]; 100 mm stent having about 3.8 mg drug, one hour post-procedure) of the same compound?
**A.** Its value is 3 to 4 ng/mL.

**Q.** What about the “whole blood concentration of everolimus in stented patients, projected” value ([2]; projected from porcine model (FIG. 3)) of the same compound?
**A.** The value was 1 to 6 ng/mL.

**Q.** And the “effect on neointimal hyperplasia in animal models” value [3]?
**A.** Its value is “effectively inhibits neointimal hyperplasia”.

**Q.** What about the “Cmax of patients treated with 5 mg everolimus per day in safety studies” value ([4]; 5 mg everolimus per day) of the same compound?
**A.** Its value is 114 ng/mL and 116 ng/mL.

**Q.** And the “recommended upper therapeutic limit in transplanted patients” value ([4]; blood concentration)?
**A.** The value was 8 ng/mL.

**Q.** What about the “effect on restenosis as compared to bare metal or paclitaxel-eluting stents” value [5] of the same compound?
**A.** The value was “reduces restenosis”.

**Q.** What about the concentration at 3 days [6, 16] of the same compound?
**A.** Its concentration at 3 days is 25.6 ng/g.

**Q.** What about the concentration at 7 days [6, 16] of the same compound?
**A.** The concentration at 7 days was 15.6 ng/g.

**Q.** What about the concentration at 14 days [6, 16] of the same compound?
**A.** The concentration at 14 days was 11.2 ng/g.

**Q.** And the concentration at 28 days [6, 16]?
**A.** The concentration at 28 days was 4.2 ng/g.

**Q.** What about the concentration at 90 days [6, 16] of the same compound?
**A.** The concentration at 90 days was 0.8 ng/g.

**Q.** And the concentration at 3 days [6, 17]?
**A.** Its concentration at 3 days is 15.1 ng/g.

**Q.** And the concentration at 7 days [6, 17]?
**A.** The concentration at 7 days was 13.2 ng/g.

**Q.** And the concentration at 14 days [6, 17]?
**A.** The concentration at 14 days was 8.2 ng/g.

**Q.** And the concentration at 28 days [6, 17]?
**A.** Its concentration at 28 days is 2.9 ng/g.

**Q.** And the concentration at 3 days [6, 18]?
**A.** The concentration at 3 days was 22.8 ng/g.

**Q.** What about the concentration at 7 days [6, 18] of the same compound?
**A.** Its concentration at 7 days is 12 ng/g.

**Q.** And the concentration at 14 days [6, 18]?
**A.** The concentration at 14 days was 8.7 ng/g.

**Q.** And the concentration at 28 days [6, 18]?
**A.** Its concentration at 28 days is 3.2 ng/g.

**Q.** What about the concentration at 90 days [6, 18] of the same compound?
**A.** The concentration at 90 days was 0.5 ng/g.

**Q.** What about the concentration at 3 days [6, 19] of the same compound?
**A.** Its concentration at 3 days is 13.5 ng/g.

**Q.** And the concentration at 7 days [6, 19]?
**A.** The concentration at 7 days was 6.3 ng/g.

**Q.** What about the concentration at 14 days [6, 19] of the same compound?
**A.** Its concentration at 14 days is 4.8 ng/g.

**Q.** What about the concentration at 28 days [6, 19] of the same compound?
**A.** Its concentration at 28 days is 0.8 ng/g.

**Q.** And the concentration at 3 days [6, 20]?
**A.** Its concentration at 3 days is 23.1 ng/g.

**Q.** And the concentration at 7 days [6, 20]?
**A.** Its concentration at 7 days is 14.4 ng/g.

**Q.** And the concentration at 28 days [6, 20]?
**A.** Its concentration at 28 days is 3.5 ng/g.

**Q.** And the concentration at 90 days [6, 20]?
**A.** The concentration at 90 days was 0.7 ng/g.

**Q.** And the concentration at 7 days [7, 21]?
**A.** Its concentration at 7 days is 524 ng/g.

**Q.** And the concentration at 7 days [7, 22]?
**A.** The concentration at 7 days was 332 ng/g.

**Q.** What about the concentration at 14 days [7, 21] of the same compound?
**A.** Its concentration at 14 days is 123 ng/g.

**Q.** What about the concentration at 14 days [7, 22] of the same compound?
**A.** The concentration at 14 days was 353 ng/g.

**Q.** What about the concentration at 28 days [7, 21] of the same compound?
**A.** Its concentration at 28 days is 114 ng/g.

**Q.** And the concentration at 28 days [7, 22]?
**A.** Its concentration at 28 days is 245 ng/g.

**Q.** And the concentration at 90 days [7, 21]?
**A.** The concentration at 90 days was 50 ng/g.

**Q.** And the concentration at 90 days [7, 22]?
**A.** The concentration at 90 days was 18 ng/g.
